About 5,000 (1.2%) of roughly 410,000 compounds were called active. Inconclusive results, whose numbers are uncertain, are shown with a selection of clear calls. Calls come from the whole dose curve; as a rule, active = well fitted inhibition curve with a large enough effect; inconclusive = small, poorly fitted or top-dose-only effect; inactive = no such curve, though single readings can be large or run the other way. A potency beside an inconclusive call is a rough fit, not a confirmed value.
Experiment: qHTS for Inhibitors of TGF-b; note: nearly all actives have a fitted effect of over 65% in size
Conditions: HepG2 CAGA-GFP TGF-b/SMAD3 reporter, GFP fluorescence, 18 h, TGF-beta stimulated, 500 pg/mL final; series mostly up to 46.1 µM
Summary of the method: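 Read-out: total well GFP (ex488/em500-530) summed from mean per-cell fluorescence. Cells: HEPG2 CAGA-GFP, 1% FBS DMEM, 18 h at 37 degrees C with 500 pg/mL final TGF-beta. Unstimulated wells served as the full-inhibition control; stimulated DMSO wells = 0%.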
Potency is the fitted concentration of half-maximal effect; tags give direction and shape of the fitted curve.

Q: Which Potency does the source give for `CCOc1ccccc1Cn1c(=O)oc2ccc(C)cc21` here?
A: Its Potency is inconclusive: 3.55 µM [inhibitor, partial curve, poor fit].

Q: With `Cc1ccc(OCC(=O)Nc2ccc(-c3nc4ccccc4o3)cc2)c(C)c1` as the molecule, how does the Potency read?
A: Its Potency is “inactive”.

Q: Which Potency does the source give for `CSc1ccc(/C=C/C(=O)OCC(=O)N2CCc3ccccc32)cc1` here?
A: Its Potency is “inactive”.

Q: With `Cc1ccc(C(C)(O)CS(=O)(=O)Cc2ccccc2)cc1` (stereo not given) as the molecule, how does the Potency read?
A: The Potency was “inactive”.

Q: With `CCOC(=O)c1ccc(NC(=O)Cn2nnc(-c3ccc(F)cc3)n2)cc1` as the molecule, how does the Potency read?
A: Its Potency is inconclusive: 2.24 µM [inhibitor, full curve, poor fit].

Q: With `CC(CC(=O)Nc1ccc(Cl)c(S(=O)(=O)N2CCOCC2)c1)c1ccccc1` (stereo not given) as the molecule, how does the Potency read?
A: Its Potency is inconclusive: 17.8 µM [inhibitor, partial curve, poor fit].

Q: Which Potency does the source give for `Cc1ccc(-c2cc(NC(=O)c3ccccc3[N+](=O)[O-])n[nH]2)cc1` here?
A: Its Potency is “inactive”.

Q: For `Cc1c(Cl)ccc2sc(N3CCN(C(=O)CS(=O)(=O)c4ccccc4)CC3)nc12`, which Potency is on record?
A: Its Potency is active: 10 µM.

Q: For `COc1ccc(CCN2C(=O)CC(Cc3ccc(Br)cc3)C2=O)cc1OC` (stereo not given), which Potency is on record?
A: Its Potency is inconclusive: 3.55 µM [inhibitor, single point].

Q: For `COCCn1c(C)cc(/C=N/NC(=O)c2cccnc2)c1C`, which Potency is on record?
A: Its Potency is “inactive”.

Q: For `CCOc1ccc(S(=O)(=O)Nc2ccc3c(c2)n(C)c(=O)n3C)cc1`, which Potency is on record?
A: Its Potency is “inactive”.

Q: With `CC(=O)Nc1ccc(N2C(=O)CC(Sc3nc4ccccc4s3)C2=O)cc1` (stereo not given) as the molecule, how does the Potency read?
A: Its Potency is “inactive”.

Q: Which Potency does the source give for `O=C(Nc1ccc(Cl)cc1)N1CCC(c2nc(-c3ccccc3Cl)no2)CC1` here?
A: The Potency was inconclusive: 15.8 µM [inhibitor, single point].

Q: With `COc1ccc(-c2cc(C(=O)NCC3CCCO3)c3cc(C)ccc3n2)cc1` (stereo not given) as the molecule, how does the Potency read?
A: The Potency was “inactive”.

Q: With `COc1cc2ccccc2cc1C(=O)N1CCN(c2ccccn2)CC1` as the molecule, how does the Potency read?
A: Its Potency is “inactive”.

Q: Which Potency does the source give for `Nc1cccc(C#Cc2ccc3c(=O)c4ccccc4oc3c2)c1` here?
A: Its Potency is inconclusive: 7.08 µM [inhibitor, full curve].

Q: With `COc1ccccc1Nc1nc(-c2ccc([N+](=O)[O-])cc2)nc2ccccc12` as the molecule, how does the Potency read?
A: The Potency was “inactive”.

Q: For `O=C(NC(=S)N1CCN(c2ccc([N+](=O)[O-])cc2)CC1)c1ccc(F)cc1`, which Potency is on record?
A: Its Potency is inconclusive: 12.6 µM [inhibitor, partial curve, poor fit].

Q: For `COc1cc(Cl)c(CN2CCC(CO)(CCOc3ccccc3)CC2)cc1OC`, which Potency is on record?
A: Its Potency is “inactive”.

Q: With `Cc1ccc(C(=O)Nc2cccc(C(F)(F)F)c2)cc1NC(=O)c1[nH]cnc1C(N)=O` as the molecule, how does the Potency read?
A: The Potency was inconclusive: 0.112 µM [inhibitor, full curve, poor fit].

Q: With `COC(=O)c1cc2oc3ccccc3c2n1CC(=O)Nc1ccc(C)cc1C` as the molecule, how does the Potency read?
A: The Potency was “inactive”.

Q: With `CCOC(=O)N1CCN(S(=O)(=O)c2ccc(OCC(=O)OC)c(Cl)c2)CC1` as the molecule, how does the Potency read?
A: The Potency was inconclusive: 35.5 µM [inhibitor, single point].

Q: With `CN(C)CCNC(=O)c1ccc2c(c1)N(Cc1c(F)cccc1Cl)C(=O)c1ccccc1S2` as the molecule, how does the Potency read?
A: The Potency was inconclusive: 35.5 µM [inhibitor, partial curve, poor fit].

Q: With `COc1cccc(C(c2ccccc2)N2C3CCC2CN(S(=O)(=O)c2ccc(F)cc2)CC3)c1` (stereo not given) as the molecule, how does the Potency read?
A: The Potency was “inactive”.

Q: Which Potency does the source give for `CCOC(=O)Cn1c(=O)oc2cc(S(=O)(=O)N3CCN(c4cc(C)ccc4C)CC3)ccc21` here?
A: The Potency was inconclusive: 11.2 µM [inhibitor, partial curve].

Q: For `COc1ccc(NS(=O)(=O)c2cc(NC(=O)c3cnccn3)ccc2N2CCCC2)cc1`, which Potency is on record?
A: Its Potency is inconclusive: 31.6 µM [inhibitor, single point].

Q: Which Potency does the source give for `O=C(Cn1c2ccccc2c2nc3n(c(=O)c21)CCCS3)Nc1ccccc1` here?
A: The Potency was inconclusive: 35.5 µM [inhibitor, single point].

Q: With `CC1(C)CN=c2s/c(=C\c3ccc(Cl)cc3)c(=O)n2C1` as the molecule, how does the Potency read?
A: Its Potency is inconclusive: 35.5 µM [inhibitor, single point].

Q: For `c1ccc(-c2cc3c(N4CCN(c5ccccc5)CC4)ncnc3s2)cc1`, which Potency is on record?
A: Its Potency is inconclusive: 35.5 µM [inhibitor, single point].

Q: Which Potency does the source give for `Cc1ccn2cc(-c3ccc(C)c(NS(=O)(=O)c4ccc(Cl)cc4)c3)nc2c1` here?
A: The Potency was inconclusive: 25.1 µM [inhibitor, single point].

Q: With `O=c1cc(-c2ccc(O)cc2)oc2c(C3O[C@H](CO)[C@@H](O)[C@H](O)[C@H]3O)c(O)cc(O)c12` (stereo not given in full) as the molecule, how does the Potency read?
A: Its Potency is “inactive”.

Q: With `COc1ccc(C(=O)N2CCN(c3nc4cc(C)cc(C)c4cc3C#N)CC2)cc1` as the molecule, how does the Potency read?
A: The Potency was inconclusive: 11.2 µM [inhibitor, single point].

Q: With `CS(=O)(=O)N(CC(=O)N1CCc2ccccc2C1)Cc1ccc(F)cc1` as the molecule, how does the Potency read?
A: Its Potency is inconclusive: 0.251 µM [inhibitor, full curve, poor fit].

Q: Which Potency does the source give for `O=C(O)/C=C/C(=O)Nc1ccccc1-c1ccccc1NC(=O)/C=C/C(=O)O` here?
A: Its Potency is “inactive”.

Q: For `COc1ccc2c(c1OC)C(=O)OC2Nc1nc(-c2ccccc2)cs1` (stereo not given), which Potency is on record?
A: Its Potency is inconclusive: 5.62 µM [inhibitor, full curve, poor fit].

Q: For `CC(C)c1ccc(NC(=O)CSc2nc(=O)n(Cc3ccccn3)c3c2CCC3)cc1`, which Potency is on record?
A: Its Potency is inconclusive: 25.1 µM [inhibitor, single point].

Q: Which Potency does the source give for `N#Cc1nc(COc2cccc(Cl)c2)oc1NCCc1ccccc1` here?
A: Its Potency is inconclusive: 11.2 µM [inhibitor, single point].

Q: Which Potency does the source give for `CCC(C(=O)NC1CCCC1)N(Cc1cccs1)C(=O)Cn1nnc(-c2ccc(OC)c(OC)c2)n1` (stereo not given) here?
A: Its Potency is “inactive”.

Q: For `Cc1ccc(NC(=O)Cn2cc(C=O)c3ccccc32)cc1`, which Potency is on record?
A: The Potency was active: 7.94 µM.

Q: With `CCCn1c(SCc2nc(-c3ccccc3OCC)no2)nnc1-c1ccc(Cl)cc1` as the molecule, how does the Potency read?
A: Its Potency is inconclusive: 22.4 µM [inhibitor, partial curve, poor fit].

Q: Which Potency does the source give for `Brc1ccccc1Cn1c(-c2cncs2)nc2ccccc21` here?
A: The Potency was “inactive”.

Q: Which Potency does the source give for `Clc1ccc(Cn2c(-c3cccnc3Cl)nc3ccccc32)c(Cl)c1` here?
A: Its Potency is “inactive”.

Q: With `COc1ccc(C(=O)c2c(C)c3ccccc3n2CC(O)CNC(C)C)cc1` (stereo not given) as the molecule, how does the Potency read?
A: Its Potency is inconclusive: 22.4 µM [inhibitor, single point].

Q: Which Potency does the source give for `O=C(CCS(=O)(=O)c1nc(-c2cccs2)cc(C(F)(F)F)n1)Nc1cc(Br)ccc1O` here?
A: Its Potency is active: 2.51 µM.

Q: With `CC(C)c1ccc(NC(=O)Cn2cc(S(=O)(=O)Cc3cccc(Cl)c3)c3ccccc32)cc1` as the molecule, how does the Potency read?
A: Its Potency is inconclusive: 0.199 µM [inhibitor, full curve, poor fit].

— PubChem BioAssay AID588855 (National Center for Advancing Translational Sciences (NCATS), 2011)
